Data from PubChem BioAssay AID2675 (National Center for Advancing Translational Sciences (NCATS), 2010).
The campaign covered roughly 280,000 compounds. About 100 (0.036%) were called active. Inconclusive results, whose numbers are uncertain, are shown with a selection of clear calls. The call rests on the fitted dose curve; in most records, active means well fitted inhibition curve with a large enough effect in the signal ratio, with a control signal flat (not every such curve was filed as active); inconclusive means small, poorly fitted or top-dose-only effect, or effect the other way, or a change in a side signal; inactive means no such curve, though single readings can be large or run the other way; the % refers to the signal ratio. A potency beside an inconclusive call is a rough fit, not a confirmed value. “Side channel” marks fits to a control or component signal instead of the main read-out.
On the % scale 0 is the no-effect control and ±100 the full control effect; potency means the concentration at half of the fitted maximal effect; tags describe the fitted curve by direction and shape or compound fluorescence and quenching.

What follows are compounds tested against Muscleblind-like protein 1 (Homo sapiens) (UniProt Q9NR56) (assay: qHTS Assay for Inhibitors of MBNL1-poly(CUG) RNA binding). Details: TR-FRET MBNL1-His/biotin-(CUG)12 binding, 665/545 ratio; activity change, negative = inhibition: at 57.5 µM (top of the series).
Chain of UniProt Q9NR56 (Q9NR56 whole entry, looked up): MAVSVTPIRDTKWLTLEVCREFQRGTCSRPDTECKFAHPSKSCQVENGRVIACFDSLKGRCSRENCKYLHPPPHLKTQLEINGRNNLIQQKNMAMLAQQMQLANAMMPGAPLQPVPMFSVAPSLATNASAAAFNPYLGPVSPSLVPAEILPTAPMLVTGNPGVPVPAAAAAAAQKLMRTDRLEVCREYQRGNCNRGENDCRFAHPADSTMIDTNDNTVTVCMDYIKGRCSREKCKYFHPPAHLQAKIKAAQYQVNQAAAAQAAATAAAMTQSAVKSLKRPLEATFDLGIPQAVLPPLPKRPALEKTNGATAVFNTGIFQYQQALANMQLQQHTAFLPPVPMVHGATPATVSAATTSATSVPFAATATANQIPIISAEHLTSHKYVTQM
Summary of the method: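 TR-FRET between His-tagged MBNL1 and biotin-(CUG)12 RNA, detected with Tb anti-His antibody (0.055 ng/ul) and streptavidin-XL665 (5 nM), 60 min at room temperature. Compounds titrated 92 nM to 58 uM; 665/545 nm ratio normalized to buffer and complex controls.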
`CN1C(=O)/C(=C2\SC(N3CCCCCC3)=NC2=O)c2ccccc21` was tested, and the Potency was inconclusive: 20 µM [quencher, side channel, partial curve]. In the case of `Cc1ccc(C)c(Oc2ncnc(N)c2[N+](=O)[O-])c1`, the Potency is reported as inconclusive: 2.82 µM [quencher, side channel, partial curve]. In the case of `CC1(C)C(=O)C2(CCCCC2)C(=O)OC1C(=O)c1ccccc1` (stereo unspecified), the Potency is reported as inconclusive: 39.8 µM [quencher, side channel, single point]. `O=C(CN1C(=O)NC2(CCCCC2)C1=O)Nc1ccc(F)cc1` was tested, and the Potency was inconclusive: 31.6 µM [fluorescent, side channel, single point]. With `O=C(CCl)Nc1ccccc1C(=O)NCc1ccccc1` the “activity change, negative = inhibition” value was inactive: -4.92%. For `O=C1SCCC1NS(=O)(=O)c1ccccc1[N+](=O)[O-]` (stereo unspecified), the Potency was inconclusive: 25.1 µM [quencher, side channel, single point]. With `COC(=O)Cn1c(=NC(=O)CN2C(=O)CCC2=O)sc2cc(S(N)(=O)=O)ccc21` the Potency was inconclusive: 3.98 µM [quencher, side channel, single point]. For `CC[n+]1ccc(C)c2cc(P(=O)(c3ccccc3)c3ccccc3)ccc21`, the Potency was inconclusive: 12.6 µM [quencher, side channel, partial curve]. `NC(=O)c1nsc(C(=O)N(c2cccc(F)c2)C(C(=O)NCC2CCCO2)c2c[nH]c3ccccc23)c1N` (stereo unspecified) was tested, and the Potency was inconclusive: 25.1 µM [quencher, side channel, partial curve]. For `COc1ccc(Nc2nc3ccccc3nc2NS(=O)(=O)c2cccs2)c(OC)c1`, the “activity change, negative = inhibition” value was inactive: -6.18%. In the case of `COc1ccc(C(=O)N/N=C/c2ccccn2)cc1OC`, the Potency is reported as inconclusive: 28.2 µM [quencher, side channel, single point]. In the case of `Cc1ccc2nc3nc(NCC4CCCO4)c(C(=O)NC4CCCC4)cc3c(=O)n2c1` (stereo unspecified), the Potency is reported as inconclusive: 0.794 µM [quencher, side channel, full curve]. For `O=C(/C=C/c1ccco1)NCC(=O)N/N=C/c1ccccc1[N+](=O)[O-]`, the Potency was inconclusive: 15.8 µM [quencher, side channel, partial curve]. For `CCOC(=O)CSc1ccc2ccccc2n1`, the “activity change, negative = inhibition” value was inactive: -6.44%. With `CCOc1ccccc1N1C(=O)c2ccc(S(=O)(=O)c3ccc(C(=O)O)cc3)cc2C1=O` the Potency was inconclusive: 28.2 µM [quencher, single point]. For `CCCCn1c(=NC(=O)c2cccnc2)c(C(=O)OCC)cc2c(=O)n3ccccc3nc21`, the Potency was inconclusive: 7.94 µM [quencher, side channel, full curve, poor fit]. For `CN(Cc1ccccc1)C(=O)C1CCN(S(=O)(=O)c2cccc3nonc23)CC1`, the Potency was inconclusive: 15.8 µM [quencher, side channel, partial curve]. `NC(=O)c1ccc(N=Nc2c(O)c3ccccc3[nH]c2=O)cc1` was tested, and the Potency was inconclusive: 0.562 µM [quencher, side channel, full curve]. For `COc1ccccc1N1CCN(CC(O)c2ccc3cc[nH]c3c2)CC1` (stereo unspecified), the Potency was inconclusive: 6.31 µM [quencher, side channel, single point]. `CC(=O)Nc1c(O)nc(SCC(=O)Nc2nnc(CC(C)C)s2)[nH]c1=O` was tested, and the Potency was inconclusive: 3.55 µM [quencher, side channel, single point]. In the case of `CN1c2ccsc2/C(=N/Nc2ccccc2)CS1(=O)=O`, the Potency is reported as inconclusive: 28.2 µM [quencher, side channel, single point]. `COc1ccc(C(=O)Cc2cc(OC)c(OC)cc2[N+](=O)[O-])c(OC)c1` was tested, and the “activity change, negative = inhibition” value was inactive: 6.07%. `CCOC(=O)c1c(-n2cccc2)sc2c1CCCC2=O` was tested, and the Potency was inconclusive: 28.2 µM [quencher, side channel, single point]. In the case of `COc1cc(C(=O)N2CCC(NC(=O)C(Cc3ccc(C)cc3)NC(C)=O)CC2)cc(OC)c1OC` (stereo unspecified), the Potency is reported as inconclusive: 39.8 µM [quencher, side channel, single point]. With `Cc1ccc2[nH]c3c(=O)n(N)c(=O)[nH]c3c2c1` the Potency was inconclusive: 14.1 µM [quencher, side channel, partial curve]. For `O=C1NC(=O)c2cc([N+](=O)[O-])cc3cccc1c23`, the Potency was inconclusive: 2.82 µM [quencher, side channel, full curve]. In the case of `O=C(NC1CCCCC1)[C@H](CSCc1ccccc1)N1Cc2ccccc2C1=O`, the Potency is reported as inconclusive: 0.891 µM [inhibitor, full curve, poor fit]. For `O=C(O)CNS(=O)(=O)c1cccc2nsnc12`, the Potency was inconclusive: 28.2 µM [quencher, side channel, partial curve]. For `Cc1ccc2nsnc2c1S(=O)(=O)N1CCN(C(=O)C2CCCO2)CC1` (stereo unspecified), the Potency was inconclusive: 20 µM [quencher, side channel, partial curve]. With `O=C(CCNC(=O)c1ccc([N+](=O)[O-])cc1)Nc1ccccc1N1CCCC1` the Potency was inconclusive: 14.1 µM [quencher, side channel, partial curve]. For `COc1ccc(-c2cc(=O)oc3cc(OCC(=O)N(C)C)ccc23)cc1`, the Potency was inconclusive: 10 µM [quencher, partial curve]. With `CCc1ccc(-c2nc(CSCC(=O)NCc3ccco3)c(C)o2)cc1` the “activity change, negative = inhibition” value was inactive: 0.801%. For `CCOc1cc(C(c2c(C)[nH][nH]c2=O)c2c(C)[nH][nH]c2=O)ccc1OC(=O)c1cccc([N+](=O)[O-])c1`, the Potency was inconclusive: 22.4 µM [quencher, side channel, partial curve]. With `COc1cc(/C=N/NC(=O)c2ccccc2Cl)ccc1Oc1ccc([N+](=O)[O-])cn1` the Potency was inconclusive: 17.8 µM [quencher, side channel, partial curve]. With `CCOC(=O)/C(C#N)=C1/C=CN(Cc2ccccc2)C=N1` the Potency was inconclusive: 28.2 µM [quencher, side channel, single point]. With `CCC(=O)OCCNc1cc(Sc2nc3ccccc3s2)c2nonc2c1[N+](=O)[O-]` the Potency was inconclusive: 11.2 µM [quencher, side channel, partial curve]. With `Cc1ccc(-c2ccc(/C=N/c3ncn[nH]3)o2)cc1Cl` the Potency was inconclusive: 17.8 µM [quencher, side channel, partial curve]. For `CCCC(=O)Nc1ccc2c(c1)nc1n2CCN(C2CCCCC2)C1`, the Potency was inconclusive: 8.91 µM [quencher, side channel, partial curve]. For `O=C(c1cccc(NS(=O)(=O)c2cccc([N+](=O)[O-])c2)c1)N1CCOCC1`, the Potency was inconclusive: 28.2 µM [quencher, side channel, partial curve]. `O=C(Oc1cccc(C(=S)N2CCOCC2)c1)c1cc([N+](=O)[O-])cc([N+](=O)[O-])c1` was tested, and the Potency was inconclusive: 17.8 µM [quencher, side channel, partial curve]. `O=C(CNC(=O)c1cccc(F)c1)N/N=C/c1ccc(O)c([N+](=O)[O-])c1` was tested, and the Potency was inconclusive: 3.16 µM [quencher, side channel, single point]. In the case of `CC(=O)Nc1sc(N/N=C/c2ccccc2)nc1-c1ccc(C)cc1`, the “activity change, negative = inhibition” value is reported as inactive: 3.68%. With `O=C(Nc1ccc(F)cc1)c1ccc(-n2cncn2)c([N+](=O)[O-])c1` the Potency was inconclusive: 50.1 µM [quencher, side channel, partial curve, poor fit]. For `CC(/C=C/c1ccc2c(c1)OCO2)=N/NC(=O)c1ccncc1`, the Potency was inconclusive: 31.6 µM [quencher, side channel, single point]. `CCN(CC)c1ccc(NC(=O)c2ccccc2)cc1S(=O)(=O)Nc1ccccc1OC` was tested, and the Potency was inconclusive: 39.8 µM [quencher, side channel, single point]. For `O=C(Oc1ccc2c3c(c(=O)oc2c1)CCC3)c1ccccc1[N+](=O)[O-]`, the Potency was inconclusive: 0.447 µM [fluorescent, side channel, partial curve]. `O=C(NCc1ccccc1)/C(=C\c1ccc([N+](=O)[O-])cc1)NC(=O)c1ccco1` was tested, and the Potency was inconclusive: 28.2 µM [quencher, partial curve]. For `COc1ccc(Nc2ccc([N+](=O)[O-])cn2)cc1`, the Potency was inconclusive: 5.62 µM [quencher, side channel, partial curve]. For `Cc1ccc(C2(COC(=O)C(C)C)CO2)c(OC(=O)C(C)C)c1` (stereo unspecified), the Potency was inconclusive: 0.794 µM [fluorescent, side channel, single point]. With `O=C(NNC(=S)NC(=O)c1ccccc1[N+](=O)[O-])c1ccccc1Cl` the Potency was inconclusive: 39.8 µM [quencher, side channel, single point]. `CCOc1c(C)cnc2c1c(=O)n(Cc1ccccc1F)c(=O)n2C` was tested, and the Potency was inconclusive: 39.8 µM [fluorescent, side channel, single point]. For `COc1nn(CC(=O)N2N=C(C)CC2(O)C(F)F)cc1[N+](=O)[O-]` (stereo unspecified), the “activity change, negative = inhibition” value was inactive: 7.29%. For `O=C(NCCc1nc2ccccc2[nH]1)c1ccc(Cl)c([N+](=O)[O-])c1`, the Potency was inconclusive: 8.91 µM [quencher, side channel, partial curve]. `COc1ccc(NC(=O)c2nc(C)c(C3(C)CC(c4cccnc4)=NO3)s2)cc1` (stereo unspecified) was tested, and the “activity change, negative = inhibition” value was inactive: 0.907%. For `O=[N+]([O-])c1cc2oc3c(c2c(C=NCc2ccccc2)c1O)CCCC3`, the “activity change, negative = inhibition” value was inactive: 4.78%. With `Cc1c(/C=N/Nc2ccc(F)cc2)c(O)n(C)c(=O)c1C#N` the Potency was inconclusive: 28.2 µM [quencher, side channel, single point].
